Test results reported in the supplement of paper PMC9151546.
Single values are uncertain, as repeats are few or missing.

Key:
CHO-K1 [1] = assay: micronucleus frequency (% of nucleated events); higher = more micronuclei (genotoxic)
CHO-K1 [2] = assay: hypodiploid nuclei frequency (% of nucleated events); higher = more hypodiploid events (aneugenic)
Description: (§1)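 Flow-cytometric in vitro micronucleus assay (Litron MicroFlow) in CHO-K1 cells in 96-well plates, 19 concentrations (4.5-200 µM, n=1 per concentration). Without S9, cells were exposed for 24 h and sampled at 48 h. With Aroclor 1254-induced rat liver S9, cells were exposed for 3-4 h and sampled at 27-28 h. Read-outs are %MN and %hypodiploid nuclei relative to nucleated events, and relative survival as the nuclei-to-bead ratio versus the 1% DMSO vehicle control (x100).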

CHO-K1 [3] = assay: relative survival (nuclei to bead ratio vs DMSO control) (% of vehicle control); higher = more surviving cells
Description: as §1
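Throughout, for hypodiploid nuclei frequency (% of nucleated events): hypodiploid nuclei gated on a flow cytometer with 488 nm excitation after SYTOX Green staining, cultures at 37 °C, positive controls vinblastine without S9 and cyclophosphamide with S9.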
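Throughout, for micronucleus frequency (% of nucleated events): cells lysed with nuclei stained by SYTOX Green, then micronucleus-gated events counted against nucleated events by flow cytometry with 488 nm excitation.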
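Throughout, for relative survival (nuclei to bead ratio vs DMSO control): Lysed-cell nuclei stained with SYTOX Green and counted against counting beads by flow cytometry at 488 nm excitation, with vinblastine (no S9) and cyclophosphamide (plus S9) as positive controls.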

Cc1ccc(C)c(O)c1 [2,5-Dimethylphenol]
Conditions	hypodiploid nuclei frequency, CHO-K1 [2] [%]	micronucleus frequency, CHO-K1 [1] [%]	relative survival, CHO-K1 [3]
concentration: 4.53 (µM), S9 metabolic activation: with S9, exposure time: 3-4 hours	0.14	1.32	168
concentration: 4.53 (µM), S9 metabolic activation: without S9, exposure time: 24 hours	0.52	2.12	132
concentration: 5.66 (µM), S9 metabolic activation: with S9, exposure time: 3-4 hours	0.32	1.46	179
concentration: 5.66 (µM), S9 metabolic activation: without S9, exposure time: 24 hours	0.46	1.84	119
concentration: 7.07 (µM), S9 metabolic activation: with S9, exposure time: 3-4 hours	0.28	1.18	131
concentration: 7.07 (µM), S9 metabolic activation: without S9, exposure time: 24 hours	0.52	1.28	127
concentration: 8.84 (µM), S9 metabolic activation: with S9, exposure time: 3-4 hours	0.28	1.56	113
concentration: 8.84 (µM), S9 metabolic activation: without S9, exposure time: 24 hours	0.34	1	117
concentration: 11.1 (µM), S9 metabolic activation: with S9, exposure time: 3-4 hours	0.34	1.7	150
concentration: 11.1 (µM), S9 metabolic activation: without S9, exposure time: 24 hours	0.72	1.04	115
concentration: 13.8 (µM), S9 metabolic activation: with S9, exposure time: 3-4 hours	0.42	1.34	148
concentration: 13.8 (µM), S9 metabolic activation: without S9, exposure time: 24 hours	0.84	1.54	117
concentration: 17.3 (µM), S9 metabolic activation: with S9, exposure time: 3-4 hours	0.28	1.36	154
concentration: 17.3 (µM), S9 metabolic activation: without S9, exposure time: 24 hours	0.38	1.7	127
concentration: 21.6 (µM), S9 metabolic activation: with S9, exposure time: 3-4 hours	0.18	1.3	114
concentration: 21.6 (µM), S9 metabolic activation: without S9, exposure time: 24 hours	0.62	0.78	117
concentration: 27 (µM), S9 metabolic activation: with S9, exposure time: 3-4 hours	0.28	1.78	138
concentration: 27 (µM), S9 metabolic activation: without S9, exposure time: 24 hours	0.7	1.36	123
concentration: 33.7 (µM), S9 metabolic activation: with S9, exposure time: 3-4 hours	0.4	1.64	137
concentration: 33.7 (µM), S9 metabolic activation: without S9, exposure time: 24 hours	0.68	1.8	153
concentration: 42.2 (µM), S9 metabolic activation: with S9, exposure time: 3-4 hours	0.12	1.34	142
concentration: 42.2 (µM), S9 metabolic activation: without S9, exposure time: 24 hours	0.82	2.12	123
concentration: 52.7 (µM), S9 metabolic activation: with S9, exposure time: 3-4 hours	0.22	2.12	132
concentration: 52.7 (µM), S9 metabolic activation: without S9, exposure time: 24 hours	0.7	2.22	128
concentration: 65.9 (µM), S9 metabolic activation: with S9, exposure time: 3-4 hours	0.38	1.82	125
concentration: 65.9 (µM), S9 metabolic activation: without S9, exposure time: 24 hours	1.06	3.1	126
concentration: 82.3 (µM), S9 metabolic activation: with S9, exposure time: 3-4 hours	0.22	1.48	102
concentration: 82.3 (µM), S9 metabolic activation: without S9, exposure time: 24 hours	0.72	2.8	112
concentration: 103 (µM), S9 metabolic activation: with S9, exposure time: 3-4 hours	0.44	1.68	138
concentration: 103 (µM), S9 metabolic activation: without S9, exposure time: 24 hours	1.26	3.02	119
concentration: 129 (µM), S9 metabolic activation: with S9, exposure time: 3-4 hours	0.16	1.46	119
concentration: 129 (µM), S9 metabolic activation: without S9, exposure time: 24 hours	1.26	3.46	95
concentration: 161 (µM), S9 metabolic activation: with S9, exposure time: 3-4 hours	0.16	2.08	132
concentration: 161 (µM), S9 metabolic activation: without S9, exposure time: 24 hours	0.98	2.18	104
concentration: 201 (µM), S9 metabolic activation: with S9, exposure time: 3-4 hours	0.34	1.9	114
concentration: 201 (µM), S9 metabolic activation: without S9, exposure time: 24 hours	1.28	3.28	90.4

N#CC(Br)Br [Dibromoacetonitrile]
Conditions	hypodiploid nuclei frequency, CHO-K1 [2] [%]	micronucleus frequency, CHO-K1 [1] [%]	relative survival, CHO-K1 [3]
concentration: 4.5 (µM), S9 metabolic activation: with S9, exposure time: 3-4 hours	0.12	0.96	111
concentration: 4.5 (µM), S9 metabolic activation: without S9, exposure time: 24 hours	1.22	1.08	102
concentration: 5.63 (µM), S9 metabolic activation: with S9, exposure time: 3-4 hours	0.28	0.82	111
concentration: 5.63 (µM), S9 metabolic activation: without S9, exposure time: 24 hours	1.14	1.34	118
concentration: 7.04 (µM), S9 metabolic activation: with S9, exposure time: 3-4 hours	0.36	0.78	122
concentration: 7.04 (µM), S9 metabolic activation: without S9, exposure time: 24 hours	1.12	1.74	107
concentration: 8.8 (µM), S9 metabolic activation: with S9, exposure time: 3-4 hours	0.2	0.96	112
concentration: 8.8 (µM), S9 metabolic activation: without S9, exposure time: 24 hours	1.36	1.5	98.4
concentration: 11 (µM), S9 metabolic activation: with S9, exposure time: 3-4 hours	0.3	0.96	105
concentration: 11 (µM), S9 metabolic activation: without S9, exposure time: 24 hours	1.24	1.2	94.4
concentration: 13.7 (µM), S9 metabolic activation: with S9, exposure time: 3-4 hours	0.22	1.22	109
concentration: 13.7 (µM), S9 metabolic activation: without S9, exposure time: 24 hours	1.16	1.08	112
concentration: 17.2 (µM), S9 metabolic activation: with S9, exposure time: 3-4 hours	0.18	1.28	104
concentration: 17.2 (µM), S9 metabolic activation: without S9, exposure time: 24 hours	0.98	1.44	98.4
concentration: 21.5 (µM), S9 metabolic activation: with S9, exposure time: 3-4 hours	0.18	1.22	106
concentration: 21.5 (µM), S9 metabolic activation: without S9, exposure time: 24 hours	1.02	1.22	89.7
concentration: 26.8 (µM), S9 metabolic activation: with S9, exposure time: 3-4 hours	0.48	1.1	122
concentration: 26.8 (µM), S9 metabolic activation: without S9, exposure time: 24 hours	1.3	1.58	102
concentration: 33.6 (µM), S9 metabolic activation: with S9, exposure time: 3-4 hours	0.42	1.04	102
concentration: 33.6 (µM), S9 metabolic activation: without S9, exposure time: 24 hours	1.78	1.86	95.7
concentration: 41.9 (µM), S9 metabolic activation: with S9, exposure time: 3-4 hours	0.28	0.92	86.8
concentration: 41.9 (µM), S9 metabolic activation: without S9, exposure time: 24 hours	1.32	1.58	102
concentration: 52.4 (µM), S9 metabolic activation: with S9, exposure time: 3-4 hours	0.18	1.14	93.5
concentration: 52.4 (µM), S9 metabolic activation: without S9, exposure time: 24 hours	1.46	3.08	92.3
concentration: 65.5 (µM), S9 metabolic activation: with S9, exposure time: 3-4 hours	0.22	1.02	96.2
concentration: 65.5 (µM), S9 metabolic activation: without S9, exposure time: 24 hours	2.04	1.84	82.6
concentration: 81.9 (µM), S9 metabolic activation: with S9, exposure time: 3-4 hours	0.22	0.66	82.8
concentration: 81.9 (µM), S9 metabolic activation: without S9, exposure time: 24 hours	2.14	2.22	81.2
concentration: 102 (µM), S9 metabolic activation: with S9, exposure time: 3-4 hours	0.36	0.96	88.9
concentration: 102 (µM), S9 metabolic activation: without S9, exposure time: 24 hours	2.66	2.1	75.1
concentration: 128 (µM), S9 metabolic activation: with S9, exposure time: 3-4 hours	0.28	1.06	94.6
concentration: 128 (µM), S9 metabolic activation: without S9, exposure time: 24 hours	3.06	2.2	64.1
concentration: 160 (µM), S9 metabolic activation: with S9, exposure time: 3-4 hours	0.44	1.78	94.3
concentration: 160 (µM), S9 metabolic activation: without S9, exposure time: 24 hours	3.3	2.96	49.6
concentration: 200 (µM), S9 metabolic activation: with S9, exposure time: 3-4 hours	0.32	1.02	114
concentration: 200 (µM), S9 metabolic activation: without S9, exposure time: 24 hours	2.26	2.28	43.7

O=C(O)C(Cl)Cl [Dichloroacetic acid]
Conditions	hypodiploid nuclei frequency, CHO-K1 [2] [%]	micronucleus frequency, CHO-K1 [1] [%]	relative survival, CHO-K1 [3]
concentration: 4.48 (µM), S9 metabolic activation: with S9, exposure time: 3-4 hours	0.3	1.66	123
concentration: 4.48 (µM), S9 metabolic activation: without S9, exposure time: 24 hours	0.74	1.4	134
concentration: 5.6 (µM), S9 metabolic activation: with S9, exposure time: 3-4 hours	0.18	1.12	93.8
concentration: 5.6 (µM), S9 metabolic activation: without S9, exposure time: 24 hours	0.88	1.16	114
concentration: 7 (µM), S9 metabolic activation: with S9, exposure time: 3-4 hours	0.32	0.92	90.1
concentration: 7 (µM), S9 metabolic activation: without S9, exposure time: 24 hours	0.62	1.1	129
concentration: 8.75 (µM), S9 metabolic activation: with S9, exposure time: 3-4 hours	0.16	1.06	81.6
concentration: 8.75 (µM), S9 metabolic activation: without S9, exposure time: 24 hours	0.62	1.6	103
concentration: 10.9 (µM), S9 metabolic activation: with S9, exposure time: 3-4 hours	0.34	0.98	92.2
concentration: 10.9 (µM), S9 metabolic activation: without S9, exposure time: 24 hours	0.68	1.42	123
concentration: 13.7 (µM), S9 metabolic activation: with S9, exposure time: 3-4 hours	0.28	1.22	85.2
concentration: 13.7 (µM), S9 metabolic activation: without S9, exposure time: 24 hours	0.64	1.14	134
concentration: 17.1 (µM), S9 metabolic activation: with S9, exposure time: 3-4 hours	0.24	1.38	67.8
concentration: 17.1 (µM), S9 metabolic activation: without S9, exposure time: 24 hours	0.64	1.62	90.3
concentration: 21.4 (µM), S9 metabolic activation: with S9, exposure time: 3-4 hours	0.28	1.24	84.8
concentration: 21.4 (µM), S9 metabolic activation: without S9, exposure time: 24 hours	0.88	1.14	107
concentration: 26.7 (µM), S9 metabolic activation: with S9, exposure time: 3-4 hours	0.3	1.66	84.8
concentration: 26.7 (µM), S9 metabolic activation: without S9, exposure time: 24 hours	0.7	1.18	100
concentration: 33.4 (µM), S9 metabolic activation: with S9, exposure time: 3-4 hours	0.3	1.58	87.7
concentration: 33.4 (µM), S9 metabolic activation: without S9, exposure time: 24 hours	0.76	1.18	85
concentration: 41.7 (µM), S9 metabolic activation: with S9, exposure time: 3-4 hours	0.16	1.72	123
concentration: 41.7 (µM), S9 metabolic activation: without S9, exposure time: 24 hours	0.52	1.08	95.7
concentration: 52.2 (µM), S9 metabolic activation: with S9, exposure time: 3-4 hours	0.26	1.32	86.5
concentration: 52.2 (µM), S9 metabolic activation: without S9, exposure time: 24 hours	1.06	1.34	108
concentration: 65.2 (µM), S9 metabolic activation: with S9, exposure time: 3-4 hours	0.42	1.4	93.5
concentration: 65.2 (µM), S9 metabolic activation: without S9, exposure time: 24 hours	0.82	1.22	117
concentration: 81.5 (µM), S9 metabolic activation: with S9, exposure time: 3-4 hours	0.18	1.22	79.8
concentration: 81.5 (µM), S9 metabolic activation: without S9, exposure time: 24 hours	1.06	1.76	96.4
concentration: 102 (µM), S9 metabolic activation: with S9, exposure time: 3-4 hours	0.3	1.1	100
concentration: 102 (µM), S9 metabolic activation: without S9, exposure time: 24 hours	1.02	1.32	73.2
concentration: 127 (µM), S9 metabolic activation: with S9, exposure time: 3-4 hours	0.24	1.54	73.7
concentration: 127 (µM), S9 metabolic activation: without S9, exposure time: 24 hours	1.36	2.56	96.4
concentration: 159 (µM), S9 metabolic activation: with S9, exposure time: 3-4 hours	0.18	1	53.1
concentration: 159 (µM), S9 metabolic activation: without S9, exposure time: 24 hours	1.16	2.52	92.8
concentration: 199 (µM), S9 metabolic activation: with S9, exposure time: 3-4 hours	0.24	1.38	82
concentration: 199 (µM), S9 metabolic activation: without S9, exposure time: 24 hours	1.2	2.3	70.2
